{
  "source": "paper PMC6919601",
  "about": "“Identification of Plasmodium dipeptidyl aminopeptidase allosteric inhibitors by high throughput screening” (PLoS ONE, 2019)",
  "note": "In all, about 110,000 compounds went through this assay and about 230 (0.21%) showed an effect of 50% or more. The list shows a part of the results.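 Further: 30 min substrate incubation versus DMSO and 10 µM JCP410 controls.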",
  "data": [
    {"target": "DPAP1 (Plasmodium falciparum, UniProt Q8IIJ9)", "sequence (Q8IIJ9 whole entry, looked up)": "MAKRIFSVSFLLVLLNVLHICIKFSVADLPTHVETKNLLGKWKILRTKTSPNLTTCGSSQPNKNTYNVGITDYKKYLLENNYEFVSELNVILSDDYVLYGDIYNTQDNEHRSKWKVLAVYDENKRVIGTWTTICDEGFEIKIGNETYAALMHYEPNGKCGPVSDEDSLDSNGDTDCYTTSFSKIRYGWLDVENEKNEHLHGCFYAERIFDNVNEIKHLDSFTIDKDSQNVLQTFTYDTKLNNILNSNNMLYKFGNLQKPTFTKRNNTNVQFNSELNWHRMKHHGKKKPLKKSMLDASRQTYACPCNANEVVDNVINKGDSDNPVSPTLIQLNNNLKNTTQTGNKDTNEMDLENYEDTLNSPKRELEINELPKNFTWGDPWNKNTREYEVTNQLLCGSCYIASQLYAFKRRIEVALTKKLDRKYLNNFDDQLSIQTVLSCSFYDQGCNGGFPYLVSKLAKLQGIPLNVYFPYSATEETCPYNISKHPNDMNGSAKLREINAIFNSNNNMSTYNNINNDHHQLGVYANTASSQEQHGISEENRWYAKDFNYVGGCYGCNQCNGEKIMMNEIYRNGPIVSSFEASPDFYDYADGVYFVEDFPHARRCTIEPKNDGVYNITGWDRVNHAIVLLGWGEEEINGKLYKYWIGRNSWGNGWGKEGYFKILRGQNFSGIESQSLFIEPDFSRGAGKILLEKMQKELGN", "experiment": "primary screen, percent inhibition; read by cleavage of a fluorogenic dipeptide substrate; higher = more effect of the substance", "design": "species or system P. falciparum D10 trophozoite lysates; single well", "units": {"% Inhibition @ 10 uM": "%"}, "values": [
      {"smiles": "NC(=O)CSc1nnnn1-c1ccccc1", "% Inhibition @ 10 uM": -12.5},
      {"smiles": "O=C(/C=C(/c1ccc(Cl)cc1)n1cncn1)c1ccc(Cl)cc1", "% Inhibition @ 10 uM": 3.57},
      {"smiles": "O=C(Nc1ccc(Cl)c(Cl)c1)[C@@H]1C2C=CC(C2)[C@@H]1C(=O)O", "note": "(some centres unmarked)", "% Inhibition @ 10 uM": -4.43},
      {"smiles": "O=C(O)CCN1C2=C(C(=O)CCC2)C(c2ccc(OCc3cccc(F)c3)cc2)C2=C1CCCC2=O", "% Inhibition @ 10 uM": 3.27},
      {"smiles": "Cc1sc(NC(=O)c2ccccc2F)c(CN2CCCC2)c1C", "% Inhibition @ 10 uM": -2.99},
      {"smiles": "NC(=O)c1ccc(NC(=O)c2sc3ccccc3c2Cl)cc1", "% Inhibition @ 10 uM": 2.45},
      {"smiles": "CC(C(O)c1ccc2c(c1)CCCC2)N1CCCCC1", "note": "(centres unmarked)", "% Inhibition @ 10 uM": -7.39},
      {"smiles": "O=C(Nc1cccc(O)c1)c1cccnc1", "% Inhibition @ 10 uM": -4.08},
      {"smiles": "Cc1ccc(C2C3=C(O)CC(C)(C)CC3=Nc3ccccc3N2C(=O)c2ccccc2)o1", "note": "(centres unmarked)", "% Inhibition @ 10 uM": -5.96},
      {"smiles": "COc1ccc(OCCCCCN2CCCCC2)cc1", "% Inhibition @ 10 uM": -3.42},
      {"smiles": "Brc1ccccc1-c1nnc2sc(-c3ccccn3)nn12", "% Inhibition @ 10 uM": -2.21},
      {"smiles": "COc1cc(C2C3=C(CC(C)(C)CC3=O)OC3=C2C(=O)CC(C)(C)C3)cc(Br)c1OC", "% Inhibition @ 10 uM": 13.2},
      {"smiles": "COc1ccc(/C=C2\\SC(=N)N(c3nccs3)C2=O)cc1", "% Inhibition @ 10 uM": -1.84},
      {"smiles": "CCOCCCNC(=O)C1CCCN(S(=O)(=O)N2CC(C)CC(C)C2)C1", "note": "(centres unmarked)", "% Inhibition @ 10 uM": -1.21},
      {"smiles": "Cc1ccc(Nc2nc(-c3ccccc3)cs2)cc1C", "% Inhibition @ 10 uM": -2},
      {"smiles": "CCOC(=O)c1c(NC(=O)c2cc(Cl)cc(Cl)c2OC)sc2c1CCCC2", "% Inhibition @ 10 uM": -4.61},
      {"smiles": "COc1ccc(CC(=O)N[C@@H](CC2CCCCC2)C(=O)NCC#N)cc1", "% Inhibition @ 10 uM": -1.83},
      {"smiles": "CNC(=O)c1ccc(NC(=O)Nc2ccccc2)cc1", "% Inhibition @ 10 uM": -1.97},
      {"smiles": "Cc1ccc2c(CNCc3cccc(F)c3)c(C(=O)O)n(Cc3ccccc3C)c2c1", "% Inhibition @ 10 uM": 2.62},
      {"smiles": "CCN1CCN(c2ncnc3scc(-c4ccc(Cl)cc4)c23)CC1", "% Inhibition @ 10 uM": 0.931},
      {"smiles": "COc1cccc2cc(-c3nc(-c4ccccn4)no3)c(=O)oc12", "% Inhibition @ 10 uM": -3.13},
      {"smiles": "O=C(NCCN1CCCC1)c1ccccc1Cl", "% Inhibition @ 10 uM": 1.61},
      {"smiles": "C=CCSc1ncc(Cl)c(C(=O)NCc2ccc(OC)cc2)n1", "% Inhibition @ 10 uM": 5.54},
      {"smiles": "O=C(COc1ccccc1)Nc1nc(C2COc3ccccc3O2)cs1", "note": "(centres unmarked)", "% Inhibition @ 10 uM": 0.00706},
      {"smiles": "O=C(Nc1cccc(O)c1)c1ccc(C(F)(F)F)cc1", "% Inhibition @ 10 uM": 13.7},
      {"smiles": "CCCCSc1nc(O)cc(=O)n1C1CCCCC1", "% Inhibition @ 10 uM": 2.01},
      {"smiles": "N#CC1=C(N)OC2=C(C(=O)CCC2)C1c1ccncc1", "note": "(centres unmarked)", "% Inhibition @ 10 uM": -0.587},
      {"smiles": "CC(=O)c1cccc(NC(=O)C2CC3c4ccccc4C2c2ccccc23)c1", "note": "(centres unmarked)", "% Inhibition @ 10 uM": 3.91},
      {"smiles": "CCSC(=O)NC12CC3CC(CC(C3)C1)C2", "% Inhibition @ 10 uM": 0.526}
    ]}
  ]
}
